Experimental data published in PMC4336329 (PLoS ONE, 2015).
About 2,200 (0.71%) of roughly 310,000 compounds showed an effect of 50% or more. Effects have a minus sign here. This is one part of the list.

biological target: human ether-à-go-go-related gene (hERG) potassium channel (human, UniProt Q12809); test: primary screen, population patch clamp on CHO cells stably expressing hERG
Sequence (Q12809 whole entry, looked up): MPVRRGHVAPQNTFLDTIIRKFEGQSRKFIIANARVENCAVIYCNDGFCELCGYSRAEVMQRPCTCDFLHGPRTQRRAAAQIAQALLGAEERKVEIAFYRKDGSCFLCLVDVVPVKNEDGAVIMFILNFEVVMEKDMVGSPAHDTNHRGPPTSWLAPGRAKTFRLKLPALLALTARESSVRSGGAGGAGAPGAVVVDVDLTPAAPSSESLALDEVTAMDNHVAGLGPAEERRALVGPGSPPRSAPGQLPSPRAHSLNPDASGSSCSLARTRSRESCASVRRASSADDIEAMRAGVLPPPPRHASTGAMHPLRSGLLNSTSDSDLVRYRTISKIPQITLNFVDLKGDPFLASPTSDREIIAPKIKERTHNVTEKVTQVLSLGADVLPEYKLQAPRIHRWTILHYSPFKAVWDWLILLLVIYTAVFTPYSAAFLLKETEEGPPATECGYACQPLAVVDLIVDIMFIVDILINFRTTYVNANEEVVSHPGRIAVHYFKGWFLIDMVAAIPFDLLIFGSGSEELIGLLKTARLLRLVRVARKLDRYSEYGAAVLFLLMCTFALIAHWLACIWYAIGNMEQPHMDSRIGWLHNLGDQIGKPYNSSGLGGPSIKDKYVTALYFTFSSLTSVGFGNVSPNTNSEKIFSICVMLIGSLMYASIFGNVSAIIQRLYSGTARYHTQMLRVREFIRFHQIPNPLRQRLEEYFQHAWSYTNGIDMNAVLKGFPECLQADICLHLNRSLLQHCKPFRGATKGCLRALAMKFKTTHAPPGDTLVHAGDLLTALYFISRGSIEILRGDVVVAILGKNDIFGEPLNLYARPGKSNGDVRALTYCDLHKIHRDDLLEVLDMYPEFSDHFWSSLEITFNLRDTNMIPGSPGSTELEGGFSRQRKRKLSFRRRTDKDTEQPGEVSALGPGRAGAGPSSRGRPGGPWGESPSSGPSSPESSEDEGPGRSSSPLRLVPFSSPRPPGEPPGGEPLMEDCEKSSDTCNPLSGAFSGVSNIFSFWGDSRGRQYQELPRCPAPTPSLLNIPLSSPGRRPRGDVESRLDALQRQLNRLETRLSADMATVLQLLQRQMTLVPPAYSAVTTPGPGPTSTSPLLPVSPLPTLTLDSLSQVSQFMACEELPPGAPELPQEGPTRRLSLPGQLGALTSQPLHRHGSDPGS

SMILES | hERG current change (%, negative = inhibition) at 1uM [%]
O=[N+]([O-])c1ccc(NCc2ccc(Cl)cc2)nc1 | 15.4
O=c1[nH]c2ccc(N/C(=N/S(=O)(=O)c3ccccc3)c3ccccc3)cc2[nH]1 | 18
C=CCOc1ccc2nnc(C)n2n1 | 8.77
O=C(Nc1cc(Cl)cc(Cl)c1)N1CCCN(Cc2ccccc2)CC1 | -22.9
COc1cc(NC(=O)c2ccc(-c3csc(C)n3)cc2)c(OC)cc1Cl | 11.9
COC(=O)C(C)N1C(=O)S/C(=C\c2cc(C)n(-c3ccccn3)c2C)C1=O (centres unmarked) | 5.84
Cc1cc(C)c2c(n1)SCC(=O)N2CC(=O)Nc1ccccc1Cl | 12.5
COC(=O)/C(=C1/Oc2cc3c(cc2S1)OCO3)C(F)(F)F | 7.79
COc1ccc(/C=N/n2c(C)nc3sc(C)c(C)c3c2=O)cc1OC | 11.3
CCC(C)N(CCNC(=O)CC1Oc2ccccc2NC1=O)C1CCCCC1 (centres unmarked) | -35.6
C/C(=N\NC(=O)c1c[nH]c2ccccc12)c1ccccn1 | 13.4
COc1cc(/C=C(\C#N)c2nc3ccccc3[nH]2)c([N+](=O)[O-])cc1OCc1ccccc1 | 13.9
CCCNC(=O)c1ccc2c(=O)c(O)c(-c3ccc(C)cc3)[nH]c2c1 | -11
Cc1ccc(COc2ccc(CNCCCN3CCCCCC3=O)cc2)cc1 | 16.1
COc1ccc(NC(=O)c2sc3nc(-c4cccnc4)ccc3c2N)cc1 | 4.14
Cc1ccc(OCC(=O)Nc2cccc(C)n2)c(C)c1 | 11.6
COc1ccc2oc(=O)c(/C(N)=N/NC(=O)c3ccncc3)cc2c1 | 10
CSc1cccc(NC(=O)C2CCCN(S(=O)(=O)c3ccc(F)cc3)C2)c1 (centres unmarked) | 10.6
COc1cc(NC(=O)C2CCCCN2)ccc1OCC(C)C (centres unmarked) | 5.55

SMILES | hERG current change (%, negative = inhibition) at 1uM [%]
c1ccc2c(c1)nnn2Cc1nnc2sc(-c3ccc4c(c3)OCCO4)nn12 | 9.84
COC(=O)c1sccc1NC(=S)N1CCN(c2ccccc2)CC1 | -1.2
O=c1[nH]c(=O)n(CCC2=CCCCC2)c(O)c1C=Nc1cccc(F)c1 | -4.58
O=C(c1cc2ccccn2n1)N1CCN(c2cccc(C(F)(F)F)c2)CC1 | 0.592
NC(=O)C1CCN(C(=O)C2CC(=O)N(c3ccc4c(c3)OCCO4)C2)CC1 (centres unmarked) | 9.68
Cc1ccc(S(=O)(=O)N(C)CC(=O)N2CCCCCCC2)cc1 | -1.03
CCN1CCN(c2nc3c(c(=O)n(C)c(=O)n3C)n2CCSc2ncccn2)CC1 | 13.5
CCCCOP(=O)(OCCCC)C(Nc1ccc(C(=O)OCC)cc1)c1ccncc1 (centres unmarked) | -2.48
CCN1C(=O)c2cccc3c(S(=O)(=O)Nc4ccncc4)ccc1c23 | 10.5
CCC(=O)Nc1ccc(/C(C)=N/NC(=O)c2c(-c3ccccc3Cl)noc2C)cc1 | 0.655
CCOC(=O)C1CCN(S(=O)(=O)c2ccc(Br)c(OCC)c2)CC1 | 0.854
I.NC(Cc1ccccc1)C(O)(c1ccccc1)c1ccccc1 (centres unmarked) | 12.2
CCN(CC)C1CCN(Cc2cn[nH]c2-c2ccc(OC)c(F)c2)C1 (centres unmarked) | -4.96
CN(Cc1ccccc1)S(=O)(=O)c1ccc(Cl)c(C(=O)N2CCC2)c1 | 3.15
S=C(Nc1ccccc1Cl)N1CCCC(c2ccccc2)=N1 | 13.8
CC1=NN(S(=O)(=O)c2ccc(C)cc2)C(=O)c2ccccc2O1 | 1.84
CCOc1ccc(C2CC(c3cccc(OC)c3)Nc3ncnn32)cc1 (centres unmarked) | -12
O=C(O)c1ccc(Nc2ncc([N+](=O)[O-])cc2[N+](=O)[O-])cc1 | 13.5
CCOP(=O)(OCC)c1cccc(O)c1 | 2.18

SMILES | hERG current change (%, negative = inhibition) at 1uM [%]
CCOC(=O)c1sc(=S)n(-c2ccc(Cl)cc2)c1C | 7.71
CN(C)CC(=O)c1ccc(-c2ccccc2)cc1 | 7.2
O=C(NC(Cc1c[nH]c2ccccc12)C(=O)O)c1ccc(Br)cc1 (centres unmarked) | 16.8
CC1CCc2nn(CC(=O)N3CCc4ccccc43)cc2C1 (centres unmarked) | 1.89
CC(C)CNS(=O)(=O)c1ccc(S(=O)(=O)N2CCC3(CC2)OCCO3)cc1.O=C(O)C(=O)O | 11.6
Cc1c[n+](CC(=O)c2ccccc2)c(C)cn1.[Br-] | 11.9
CCCC(C)NC(=O)Cn1c(=O)c2c(ncn2CCC(C)C)n(Cc2ccccc2)c1=O (centres unmarked) | 12.1
O=C(CCCN1C(=O)c2ccccc2C1=O)NCCC1=CCCCC1 | 1.57
COc1ccc(CCNC(=O)CCc2ccc(S(=O)(=O)NC(C)C)cc2)cc1 | 5.08
Cc1cccc2c1cnn2C(=O)CCC(=O)N1CCC(C)CC1 | 6.31
FC(F)(F)c1ccccc1CNCCc1c[nH]c2ccccc12.O=C(O)C(=O)O | 7.44
Cc1ccc(NC(=S)N(Cc2ccco2)C2CCN(C(C)C)CC2)cc1 | 2.08
O=C(CN1CCCN(Cc2ccc(F)cc2Cl)C1=O)NC1CCCCCCC1 | 2.79
COC(=O)c1cc(Br)c(=O)n(CCc2ccc(O)cc2)c1.Cl | 6.1
O=C(COc1ccccc1Cl)N1CCN(c2ccc([N+](=O)[O-])c(N3CCOCC3)c2)CC1 | 14.6
COc1cc(/C=C2\N=C(c3c(-c4ccccc4)noc3C)OC2=O)ccc1OC(C)=O | 8.68
COc1cc(C2=NOC(C(=O)NC3CCCCC3)C2)cc(OC)c1OC (centres unmarked) | 0.584
FC(F)Sc1ccc(NC(=S)NC(c2ccccc2)c2ccccc2)cc1 | 7.3
